Where “and” joins values, the source holds several entries; their conditions need not be identical. Identical values can stand only once. The campaign covered roughly 200,000 compounds. About 4,500 (2.2%) were called active. The shares of active, inactive and inconclusive entries below differ from those in the screen. The call rests on the fitted dose curve; in most records, active means well fitted inhibition curve with a large enough effect; inconclusive means small, poorly fitted or top-dose-only effect, or effect the other way; inactive means flat fitted curve, though single readings scatter. Potencies of inconclusive entries are doubtful fits and often do not repeat.
These compounds were tested against Cruzipain (Trypanosoma cruzi) (UniProt P25779) (assay: qHTS Assay for Promiscuous and Specific Inhibitors of Cruzain (without detergent)). Details: purified cruzain, Z-FR-AMC fluorescence, no detergent.
Method in brief: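 Detergent-free condition (0.00005% Triton X-100) in acetate buffer pH 5.5 with DTT. 1.5 nM enzyme and compound were pre-mixed 15 min, then 2 uM Z-FR-AMC substrate added; reaction progress from fluorescence change between first and third reads (60 s).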
Further: nearly all actives have a fitted effect of over 40% in size.
Potency means the concentration at half of the fitted maximal effect; tags describe the fitted curve by direction and shape.
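Wherever max response, negative = inhibition is given: plate controls were enzyme without inhibitor for no effect and buffer without enzyme for full effect.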

UniProt P25779, sequence (P25779 whole entry, looked up): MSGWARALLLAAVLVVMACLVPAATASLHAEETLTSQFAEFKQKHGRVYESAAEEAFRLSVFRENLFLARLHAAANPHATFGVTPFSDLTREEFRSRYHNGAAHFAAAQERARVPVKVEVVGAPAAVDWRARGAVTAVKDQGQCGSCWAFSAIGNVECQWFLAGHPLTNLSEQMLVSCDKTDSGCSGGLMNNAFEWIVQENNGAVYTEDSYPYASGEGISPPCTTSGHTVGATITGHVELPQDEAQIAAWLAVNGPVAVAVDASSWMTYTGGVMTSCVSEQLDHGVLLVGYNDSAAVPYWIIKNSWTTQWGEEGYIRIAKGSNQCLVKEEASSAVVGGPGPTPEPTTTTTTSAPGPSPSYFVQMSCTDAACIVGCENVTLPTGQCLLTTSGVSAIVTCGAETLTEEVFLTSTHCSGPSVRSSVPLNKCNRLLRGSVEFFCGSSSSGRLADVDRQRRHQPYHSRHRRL

Compound	Potency	max response, negative = inhibition
Cc1ccc(CN(c2ccc(C(=O)N3CCCC3)cc2)S(C)(=O)=O)cc1	inconclusive: 31.6 µM [activator, single point]	–
CN(C)c1ccc(/C=C/c2nc(-c3ccccc3O)n(-c3ccccc3)n2)cc1	–	inactive: -7.15%
Cc1ccc2nc(-c3cccs3)c(Nc3c(C)cccc3C)n2c1	–	inactive: -7.51%
COc1ccc(C)cc1NC(=O)C(Sc1nnc(-c2ccncc2)n1-c1ccc(Cl)cc1)c1ccccc1 (stereo not drawn)	inconclusive: 12.6 µM [activator, partial curve]	–
COc1ccc(NC(=O)CN2C(=O)CC(c3ccc(C)c(C)c3)=Nc3ccccc32)cc1OC	inconclusive: 25.1 µM [activator, single point]	–
Fc1cccc2sc(Nc3nc4c(F)cccc4s3)nc12	inconclusive: 31.6 µM [inhibitor, single point]	–
O=C(CSc1nc2cc(C(F)(F)F)ccc2n1Cc1ccccc1)NC1CCS(=O)(=O)C1 (stereo not drawn)	inconclusive: 31.6 µM [activator, single point]	–
CCOc1cccc(C(=O)c2ccc(O)c(O)c2O)c1	–	inactive: -13%
COc1ccc(NC(=O)Cn2nnc(C(=O)NCc3cccs3)c2N)cc1	inconclusive: 39.8 µM [inhibitor, single point]	–
COc1cc(NC(=O)CN2CCN(S(=O)(=O)c3ccc(C(C)C)cc3)CC2)cc(OC)c1	inconclusive: 25.1 µM [activator, partial curve]	–
Cc1ccc2c(COC(=O)CC3Sc4ccccc4NC3=O)cc(=O)oc2c1C (stereo not drawn)	inconclusive: 31.6 µM [inhibitor, single point]	–
COc1cc(-c2nnc(SCC(=O)Nc3ccc4c(c3)OCCO4)o2)cc(OC)c1OC	inconclusive: 39.8 µM [activator, single point]	–
CCN(CC)CCNC(=O)Cn1ncc2c3ccccc3n(Cc3ccc(Cl)cc3)c2c1=O	–	inactive: 5.6%
Cc1nn(-c2ccccc2)c2c1C(c1ccc(O)c(O)c1)N1C(=N2)C(Nc2ccccc2)=Nc2ccccc21 (stereo not drawn)	inconclusive: 0.316 µM [inhibitor, full curve, poor fit]	–
COC(=O)c1c(NC(=O)COC(=O)[C@@H](NS(=O)(=O)c2cccc(Cl)c2)C(C)C)sc2c1CCC2	active: 15.8 µM	–
CC(=O)OC1CCC2(C)C3=C(CCC2C1(C)C)[C@]1(C)CCC(C(C)CCC=C(C)C)[C@]1(C)CC3 (stereo partly drawn)	inconclusive: 39.8 µM [activator, single point]	–
CC(C)n1c(=O)c2c(O)cc(=O)oc2c2ccccc21	active: 25.1 µM	–
Cc1ccc(-n2nnnc2SCC(=O)Nc2ccccc2-c2ccccc2)cc1C	inconclusive: 39.8 µM [inhibitor, single point]	–
O=C(NCC1OCCc2ccccc21)c1ccc(NC(=O)c2ccc(Cl)cc2Cl)cc1 (stereo not drawn)	inconclusive: 39.8 µM [inhibitor, single point]	–
O=C(c1cc2nc(-c3ccccc3)cc(-c3ccccc3)n2n1)N1CCN(C(=O)c2ccco2)CC1	inconclusive: 39.8 µM [activator, single point]	–
CCc1cccc(NC(=O)c2cc3c(=O)n(Cc4ccccc4)ccc3nc2C)c1	inconclusive: 31.6 µM [activator, single point]	–

Compound	Potency	max response, negative = inhibition
O=C(CSc1cn(Cc2ccccc2)c2ccccc12)Nc1nccs1	inconclusive: 31.6 µM [inhibitor, single point]	–
CC1CCN(c2nn3c(=O)c(C(=O)NCCCOC(C)C)cnc3s2)CC1	–	inactive: 5.12%
CC1=C(C(=O)OCc2ccccc2)C(c2ccc(C(C)(C)C)cc2)NC(=O)N1CCCCCC(=O)O (stereo not drawn)	inconclusive: 39.8 µM [activator, single point] and inconclusive: 31.6 µM [activator, single point]	–
COc1ccc(CNc2ncnc3ccc(-c4ccc(N(C)C)cc4)cc23)c(OC)c1	inconclusive: 31.6 µM [inhibitor, single point]	–
Cc1cnc(CNc2ncncc2-c2ccc3c(c2)OCO3)cn1	–	inactive: 1.46%
COc1ccc(-c2nn3c(C4CCCCC4)nnc3s2)cc1OC	inconclusive: 31.6 µM [activator, single point]	–
COc1cc2c(cc1NC(=S)NC(=O)/C=C/c1ccco1)oc1ccccc12	active: 12.6 µM	–
Cc1ccc(-c2nc(C)c(CCNC(=O)c3cccs3)s2)cc1	–	inactive: 15.1%
CC(=O)c1cccc(NC(=O)C2CCN(S(=O)(=O)c3ccc4c(c3)CCCN4C(C)=O)CC2)c1	–	inactive: 20.1%
CCCCC(CC)CNS(=O)(=O)c1ccc2c(c1)CCN2C(=O)CCC(=O)O (stereo not drawn)	inconclusive: 39.8 µM [activator, single point]	–
O=c1cc(-c2ccc(O)cc2)oc2cc(O)cc(O)c12	inconclusive: 12.6 µM [inhibitor, single point]	–
Cc1ccc(NC2=C/C(=N\S(=O)(=O)c3cccs3)c3ccccc3C2=O)c(C)c1	inconclusive: 31.6 µM [inhibitor, single point]	–
CC(=O)Nc1nc2n(n1)C(c1ccc(F)cc1)C=C(c1ccc(Cl)cc1)N2 (stereo not drawn)	inconclusive: 39.8 µM [activator, single point]	–
O=C(Cn1c2ccccc2c(=O)c2cc([N+](=O)[O-])ccc21)Nc1ccccc1Cl	inconclusive: 39.8 µM [inhibitor, single point]	–
O=c1c2c3nc4ccccc4nc3n(-c3ccc4c(c3)OCCO4)c2ncn1C1CCCC1	inconclusive: 12.6 µM [activator, partial curve]	–
O=C(Nc1ccc(N2CCCC2)cc1)c1cccc(-c2cc3ccccc3oc2=O)c1	active: 3.98 µM	–
Fc1ccc(CNc2nc3ccccc3n3nnnc23)cc1	inconclusive: 31.6 µM [inhibitor, single point]	–
CCOC(=O)CSc1nc2ccccc2c(=O)n1CCC(=O)NCCc1ccc(OC)c(OC)c1	inconclusive: 25.1 µM [activator, single point]	–
COc1ccc(Cn2ccc3nc(C)c(C(=O)Nc4ccc(OC)cc4)cc3c2=O)cc1	inconclusive: 31.6 µM [activator, partial curve]	–
CCOC(=O)c1cccc(NC(=O)CSc2nnc(CNc3ccc(C)cc3)n2CC)c1	inconclusive: 20 µM [activator, single point]	–
COc1ccc(-c2cc(C(F)(F)F)n3nc(C(=O)N4CCC5(CC4)OCCO5)cc3n2)cc1OC	inconclusive: 25.1 µM [activator, partial curve]	–

Compound	Potency	max response, negative = inhibition
O=C(N/N=C/c1c[nH]c2ccccc12)c1ccn(Cc2ccc(Cl)cc2Cl)n1	inconclusive: 25.1 µM [inhibitor, single point]	–
Cc1cc(/C=C2\SC(=Nc3ccc(N4CCOCC4)cc3)N(C)C2=O)c(C)n1-c1cccnc1	inconclusive: 20 µM [activator, partial curve]	–
CSc1ccc(S(=O)(=O)NCCSc2ccccn2)cc1	inconclusive: 3.16 µM [inhibitor, single point]	–
CCC(=NCCc1c[nH]c2ccccc12)c1c(O)n(C)c(=O)n(C)c1=O	inconclusive: 39.8 µM [activator, single point]	–
O=C(/C=C/c1cccc([N+](=O)[O-])c1)Nc1cccc(NC(=O)c2ccco2)c1	inconclusive: 39.8 µM [inhibitor, single point]	–
COc1cccc(-n2ccnc2SCC(=O)Nc2c(C)cc(C)cc2C)c1	–	inactive: 0.115%
Cc1cc(C)c(NC(=O)Cn2c(=O)c3cccn3c3ccccc32)c(C)c1	inconclusive: 31.6 µM [inhibitor, partial curve, poor fit]	–
O=C(OCc1nc2scc(-c3ccccc3)c2c(=O)[nH]1)c1cc([N+](=O)[O-])ccc1Cl	inconclusive: 31.6 µM [inhibitor, single point]	–
Cc1cccc(OCC(=O)Nc2cccc(OCc3cc(=O)n4cccc(C)c4n3)c2)c1	–	inactive: -4.43%
Cc1cc2nc(-c3cccc(NC(=O)c4cccc5ccccc45)c3)oc2cc1C	–	inactive: -12.8%
Cc1ccc(-n2c(C)cc(-c3csc(N)n3)c2C)cc1	active: 25.1 µM	–
CC1CCN(CCc2nc3cc(NS(=O)(=O)c4ccc(F)cc4)ccc3n2C)CC1	–	inactive: -2.62%
Cc1cccn2c(=O)c3cc(C(=O)NCC4CCCO4)c(=N)n(CCN4CCOCC4)c3nc12 (stereo not drawn)	–	inactive: -1.26%
CCOC(=O)N1CCN(C(=O)CN(c2ccc(OCc3ccccc3)cc2)S(C)(=O)=O)CC1	inconclusive: 31.6 µM [activator, single point]	–
COC(=O)c1cc2c(s1)-c1ccccc1CC2	inconclusive: 31.6 µM [activator, single point]	–
Cc1ccc(S(=O)(=O)N2CCCCC2)cc1NC(=O)Cc1c[nH]c2ccccc12	inconclusive: 31.6 µM [inhibitor, single point]	–
Cc1cc(NC(=O)c2ccc(F)cc2F)n(-c2nc3ccccc3[nH]2)n1	active: 20 µM	–
COc1ncnc2c1NC1=C(S2)C(=NCCC(=O)O)CC(C)(C)C1	–	inactive: -13.6%
CCOC(=O)c1cnc(-n2cc(C)cn2)nc1Nc1ccccc1OC	inconclusive: 31.6 µM [activator, single point]	–
O=C(CCc1nc(-c2cccs2)no1)Nc1cnc2ccccc2c1	inconclusive: 39.8 µM [inhibitor, single point]	–
CC(=O)N1c2ccccc2CC1C(=O)N1CCN(c2ccccc2)CC1 (stereo not drawn)	–	inactive: 9.43%

From PubChem BioAssay AID1476 (National Center for Advancing Translational Sciences (NCATS), 2009)
